Results published in the antibiotic and cytotoxicity screens of Wong et al. (2023).
Some of the results follow.

Key:
HSkMC = human skeletal muscle cells; assay: cytotoxicity call (relative viability < 0.9); details: 10 µM
HepG2 = assay: cytotoxicity call (relative viability < 0.9); details: 10 µM
S. aureus RN4220 = assay: growth inhibition call (relative growth <= 0.2); details: 50 µM

SMILES | cytotoxicity call (HSkMC) | cytotoxicity call (HepG2) | growth inhibition call (S. aureus RN4220)
C[C@@H]1CN([C@H](C)CO)C(=O)c2cc(NC(=O)Nc3ccc4c(c3)OCO4)ccc2O[C@@H](C)CCCCO[C@@H]1CN(C)C(=O)c1ccccc1 | inactive | inactive | inactive
OC[C@H]1COCc2cnnn21 | inactive | inactive | inactive
Cc1ccc(CNS(=O)(=O)N(C)C)cc1 | inactive | inactive | inactive
C[C@H](CO)N1C[C@H](C)[C@@H](CN(C)C(=O)C2CCCCC2)Oc2cc(Br)ccc2S1(=O)=O | inactive | inactive | inactive
C[C@@H]1CN([C@@H](C)CO)S(=O)(=O)c2ccc(C#CC(C)(C)O)cc2O[C@H]1CN(C)Cc1ccccc1 | inactive | inactive | inactive
COc1ccc(CC[C@@H](OC(=O)[C@H]2CCCCN2C(=O)Cc2ccccc2)c2cccc(OCC(=O)O)c2)cc1OC | inactive | active | inactive
CC(C)NC(=O)N(C)C[C@@H]1Oc2ccc(NC(=O)CCC(F)(F)F)cc2C(=O)N([C@H](C)CO)C[C@H]1C | inactive | inactive | inactive
C[C@@H]1CN([C@@H](C)CO)C(=O)Cc2cc(NC(=O)Nc3cccc4ccccc34)ccc2O[C@H]1CN(C)C(=O)Nc1ccc2c(c1)OCO2 | inactive | inactive | inactive
CN(C)CC(=O)N[C@H]1CC[C@@H](CCNC(=O)C2CCC2)O[C@H]1CO | inactive | inactive | inactive
CC(C)(C)[S@@](=O)N1Cc2cc(C(=O)N3CCc4ccccc4C3)nc(-c3cccc(-c4cccnc4)c3)c2[C@H]1CCO | inactive | inactive | inactive
COc1ccc(NC(=O)Nc2ccc3c(c2)CC(=O)N([C@@H](C)CO)C[C@H](C)[C@@H](CN(C)Cc2ccc(C(=O)Nc4ccccc4N)cc2)O3)cc1 | inactive | inactive | inactive
Cc1noc(C)c1S(=O)(=O)N(C)C[C@@H]1Oc2ccc(NC(=O)CCN3CCOCC3)cc2C(=O)N([C@H](C)CO)C[C@@H]1C | inactive | inactive | inactive
CCCNC(=O)N1C[C@]2(CN(C2)S(=O)(=O)c2cccc(c2)OC)c2c(n(c3cc(ccc23)OC)C)[C@@H]1CO | inactive | inactive | inactive
COc1ccc(NC(=O)N(C)C[C@@H]2Oc3ccc(NS(C)(=O)=O)cc3CC(=O)N([C@@H](C)CO)C[C@H]2C)cc1 | inactive | inactive | inactive
Cc1noc(C)c1NC(=O)N(C)C[C@@H]1OCCCC[C@H](C)Oc2ccc(NS(=O)(=O)c3ccc(F)cc3)cc2C(=O)N([C@H](C)CO)C[C@@H]1C | inactive | inactive | inactive
C[C@@H]1CN([C@@H](C)CO)C(=O)c2cccc(NS(=O)(=O)c3ccc(F)cc3)c2O[C@@H]1CN(C)Cc1ccc(Cl)c(Cl)c1 | inactive | inactive | inactive
C[C@H]1CCCCO[C@H](CN(C)S(=O)(=O)c2ccc(Cl)cc2)[C@@H](C)CN([C@@H](C)CO)C(=O)c2cc(NC(=O)c3ccccc3)ccc2O1 | inactive | active | inactive
C[C@@H]1CN([C@H](C)CO)C(=O)c2cccc(NS(=O)(=O)c3cn(C)cn3)c2O[C@@H]1CN(C)Cc1ccc(C(=O)Nc2ccccc2N)cc1 | inactive | inactive | inactive
C[C@@H]1CCCCO[C@H](CN(C)S(=O)(=O)c2cn(C)cn2)[C@H](C)CN([C@@H](C)CO)C(=O)c2cc(NC(=O)c3ccncc3)ccc2O1 | inactive | inactive | inactive
CCO[C@H]1OC(C(=O)N2CCN(Cc3ccc4c(c3)OCO4)CC2)=C[C@@H](C)[C@@H]1CCCOC(=O)NCCCCCC(=O)NO | inactive | inactive | inactive
O=C(Nc1ccccc1C(=O)O)c1nnc[nH]1 | inactive | inactive | inactive
C[C@@H]1CCCCO[C@@H](CN(C)Cc2ccc(C(=O)O)cc2)[C@@H](C)CN([C@H](C)CO)C(=O)c2cc(NC(=O)C3CCCCC3)ccc2O1 | inactive | inactive | inactive
C[C@H]1CN([C@@H](C)CO)C(=O)c2cccc(NS(=O)(=O)c3cn(C)cn3)c2O[C@H]1CN(C)Cc1ccc(C(=O)O)cc1 | inactive | inactive | inactive
C[C@H]1CN([C@@H](C)CO)C(=O)c2cc(NC(=O)Nc3ccc4c(c3)OCO4)ccc2O[C@H]1CN(C)Cc1ccc(C(=O)Nc2ccccc2N)cc1 | inactive | inactive | inactive
